Laboratory results published in the supplement of paper PMC8728848.
The other results are listed elsewhere or left out.

Key:
Assay in all cases: glycan array binding signal (z-score within array); higher = stronger binding
Details in all cases: glycan notation: IUPAC condensed, linker removed
[1] = target: Fuc(a1-2)Gal(b1-4)[Fuc(a1-3)]GlcNAc(b1-2)[Fuc(a1-2)Gal(b1-4)[Fuc(a1-3)]GlcNAc(b1-4)]Man(a1-3)[Fuc(a1-2)Gal(b1-4)[Fuc(a1-3)]GlcNAc(b1-2)Man(a1-6)]Man(b1-4)GlcNAc(b1-4)GlcNAc
Method in brief: (§1)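 Glycan array binding is given as a within-array Z-score, which can be read as non-binding when negative. The arrays, 3228 of them, came from the Consortium for Functional Glycomics database and were retained only where the protein sequence was available. Z-scores were averaged across arrays of the same protein sequence at different concentrations or buffers and across linkers.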

[2] = target: Fuc(a1-2)Gal(b1-4)[Fuc(a1-3)]GlcNAc(b1-3)Gal(b1-4)[Fuc(a1-3)]GlcNAc
Method in brief: as §1

[3] = target: Fuc(a1-2)Gal(b1-4)[Fuc(a1-3)]GlcNAc(b1-3)Gal(b1-4)[Fuc(a1-3)]GlcNAc(b1-3)Gal(b1-4)[Fuc(a1-3)]GlcNAc
Method in brief: as §1

[4] = target: Fuc(a1-2)Gal(b1-4)[Fuc(a1-3)]GlcNAc(b1-3)GalNAc
Method in brief: as §1

Fuc(a1-2)Gal6S(b1-4)Glc = target: Fuc(a1-2)Gal6S(b1-4)Glc
Method in brief: as §1

[5] = target: Fuc(a1-2)Gal6S(b1-4)Glc6S
Method in brief: as §1

[6] = target: Fuc(a1-2)Gal6S(b1-4)GlcNAc
Method in brief: as §1

Fuc(a1-2)[Gal(a1-3)]Gal = target: Fuc(a1-2)[Gal(a1-3)]Gal
Method in brief: as §1

[7] = target: Fuc(a1-2)[Gal(a1-3)]Gal(b1-3)GlcNAc
Method in brief: as §1

[8] = target: Fuc(a1-2)[Gal(a1-3)]Gal(b1-3)GlcNAc(b1-2)Man(a1-3)[Fuc(a1-2)[Gal(a1-3)]Gal(b1-3)GlcNAc(b1-2)Man(a1-6)]Man(b1-4)GlcNAc(b1-4)GlcNAc
Method in brief: as §1

[9] = target: Fuc(a1-2)[Gal(a1-3)]Gal(b1-3)GlcNAc(b1-3)GalNAc
Method in brief: as §1

[10] = target: Fuc(a1-2)[Gal(a1-3)]Gal(b1-4)Glc
Method in brief: as §1

[11] = target: Fuc(a1-2)[Gal(a1-3)]Gal(b1-4)GlcNAc
Method in brief: as §1

[12] = target: Fuc(a1-2)[Gal(a1-3)]Gal(b1-4)GlcNAc(b1-2)Man(a1-3)[Fuc(a1-2)[Gal(a1-3)]Gal(b1-4)GlcNAc(b1-2)Man(a1-6)]Man(b1-4)GlcNAc(b1-4)GlcNAc
Method in brief: as §1

[13] = target: Fuc(a1-2)[Gal(a1-3)]Gal(b1-4)GlcNAc(b1-2)Man(a1-3)[Fuc(a1-2)[Gal(a1-3)]Gal(b1-4)GlcNAc(b1-2)Man(a1-6)]Man(b1-4)GlcNAc(b1-4)[Fuc(a1-6)]GlcNAc
Method in brief: as §1

[14] = target: Fuc(a1-2)[Gal(a1-3)]Gal(b1-4)GlcNAc(b1-3)GalNAc
Method in brief: as §1

[15] = target: Fuc(a1-2)[Gal(a1-3)]Gal(b1-4)[Fuc(a1-3)]Glc
Method in brief: as §1

[16] = target: Fuc(a1-2)[Gal(a1-3)]Gal(b1-4)[Fuc(a1-3)]GlcNAc
Method in brief: as §1

[17] = target: Fuc(a1-2)[Gal(a1-3)]Gal(b1-4)[Fuc(a1-3)]GlcNAc(b1-3)GalNAc
Method in brief: as §1

[18] = target: Fuc(a1-2)[Gal(a1-4)]Gal(b1-4)GlcNAc
Method in brief: as §1

[19] = target: Fuc(a1-2)[GalNAc(a1-3)]Gal
Method in brief: as §1

[20] = target: Fuc(a1-2)[GalNAc(a1-3)]Gal(b1-3)GalNAc(a1-3)[Fuc(a1-2)]Gal(b1-4)GlcNAc
Method in brief: as §1

[21] = target: Fuc(a1-2)[GalNAc(a1-3)]Gal(b1-3)GlcNAc
Method in brief: as §1

[22] = target: Fuc(a1-2)[GalNAc(a1-3)]Gal(b1-3)GlcNAc(b1-2)Man(a1-3)[Fuc(a1-2)[GalNAc(a1-3)]Gal(b1-3)GlcNAc(b1-2)Man(a1-6)]Man(b1-4)GlcNAc(b1-4)GlcNAc
Method in brief: as §1

[23] = target: Fuc(a1-2)[GalNAc(a1-3)]Gal(b1-3)GlcNAc(b1-3)GalNAc
Method in brief: as §1

[24] = target: Fuc(a1-2)[GalNAc(a1-3)]Gal(b1-4)Glc
Method in brief: as §1

[25] = target: Fuc(a1-2)[GalNAc(a1-3)]Gal(b1-4)GlcNAc
Method in brief: as §1

[26] = target: Fuc(a1-2)[GalNAc(a1-3)]Gal(b1-4)GlcNAc(b1-2)Man(a1-3)[Fuc(a1-2)[GalNAc(a1-3)]Gal(b1-4)GlcNAc(b1-2)Man(a1-6)]Man(b1-4)GlcNAc(b1-4)GlcNAc
Method in brief: as §1

[27] = target: Fuc(a1-2)[GalNAc(a1-3)]Gal(b1-4)GlcNAc(b1-3)Gal(b1-4)GlcNAc
Method in brief: as §1

[28] = target: Fuc(a1-2)[GalNAc(a1-3)]Gal(b1-4)GlcNAc(b1-3)Gal(b1-4)GlcNAc(b1-3)Gal(b1-4)GlcNAc
Method in brief: as §1

B1: Tectonin 2 (Laccaria bicolor) (protein)
chain: MPWKGISGSLSRISAGSVTNVWGVNAANNIYRYTGDDAKPWVQIPGALTDIGAAADGTVWGVNAAGNIYRYVWDSNHWTQIKGALKRISAGSRTNVWGVNAGGAIYRYTGDDANPWVQIPGVLSDIGAGADGTVWGVNAAGEIYRYTGDQGDPNHWVKIPGALSAISAGIKTNVWGVNSANNIYTSTGDDKNPWLGIGGSLVDIGAGTDGVVWGVNAGGGIYRWIRD
[1]
  glycan array binding signal (z-score): 0.014
[2]
  glycan array binding signal (z-score): -0.116
[3]
  glycan array binding signal (z-score): 0.134
[4]
  glycan array binding signal (z-score): 0.847
Fuc(a1-2)Gal6S(b1-4)Glc
  glycan array binding signal (z-score): 0.025
[5]
  glycan array binding signal (z-score): 1.47
[6]
  glycan array binding signal (z-score): 0.279
Fuc(a1-2)[Gal(a1-3)]Gal
  glycan array binding signal (z-score): 0.54
[7]
  glycan array binding signal (z-score): -0.07
[8]
  glycan array binding signal (z-score): 0.495
[9]
  glycan array binding signal (z-score): -0.223
[10]
  glycan array binding signal (z-score): -0.179
[11]
  glycan array binding signal (z-score): 0.816
[12]
  glycan array binding signal (z-score): 9.62
[13]
  glycan array binding signal (z-score): 0.092
[14]
  glycan array binding signal (z-score): 0.145
[15]
  glycan array binding signal (z-score): -0.505
[16]
  glycan array binding signal (z-score): 0.187
[17]
  glycan array binding signal (z-score): -0.298
[18]
  glycan array binding signal (z-score): 0.061
[19]
  glycan array binding signal (z-score): -0.295
[20]
  glycan array binding signal (z-score): -0.454
[21]
  glycan array binding signal (z-score): -0.14
[22]
  glycan array binding signal (z-score): -0.226
[23]
  glycan array binding signal (z-score): 0.162
[24]
  glycan array binding signal (z-score): -0.525
[25]
  glycan array binding signal (z-score): -0.227
[26]
  glycan array binding signal (z-score): -0.16
[27]
  glycan array binding signal (z-score): -0.507
[28]
  glycan array binding signal (z-score): -0.055
